Common to all, as to test: co-IP; HEK293T cells transfected with expression plasmids for full-length proteins; IP buffer 50 mM Tris-HCl pH 7.5, 150–300 mM NaCl, 1 mM DTT, 0.5% Nonidet P-40; which partner was precipitated is not told
In test [1] the target is EBNA3C, full-length, expressed in HEK293T cells (Epstein–Barr virus) (UniProt P03204).
Test [2] addresses EBNA3B, full-length, expressed in HEK293T cells (Epstein–Barr virus) (UniProt P03203).
For test [3], the target named is T1, EBNA3A, full-length, expressed in HEK293T cells (Epstein–Barr virus) (UniProt P12977).
T1 sequence: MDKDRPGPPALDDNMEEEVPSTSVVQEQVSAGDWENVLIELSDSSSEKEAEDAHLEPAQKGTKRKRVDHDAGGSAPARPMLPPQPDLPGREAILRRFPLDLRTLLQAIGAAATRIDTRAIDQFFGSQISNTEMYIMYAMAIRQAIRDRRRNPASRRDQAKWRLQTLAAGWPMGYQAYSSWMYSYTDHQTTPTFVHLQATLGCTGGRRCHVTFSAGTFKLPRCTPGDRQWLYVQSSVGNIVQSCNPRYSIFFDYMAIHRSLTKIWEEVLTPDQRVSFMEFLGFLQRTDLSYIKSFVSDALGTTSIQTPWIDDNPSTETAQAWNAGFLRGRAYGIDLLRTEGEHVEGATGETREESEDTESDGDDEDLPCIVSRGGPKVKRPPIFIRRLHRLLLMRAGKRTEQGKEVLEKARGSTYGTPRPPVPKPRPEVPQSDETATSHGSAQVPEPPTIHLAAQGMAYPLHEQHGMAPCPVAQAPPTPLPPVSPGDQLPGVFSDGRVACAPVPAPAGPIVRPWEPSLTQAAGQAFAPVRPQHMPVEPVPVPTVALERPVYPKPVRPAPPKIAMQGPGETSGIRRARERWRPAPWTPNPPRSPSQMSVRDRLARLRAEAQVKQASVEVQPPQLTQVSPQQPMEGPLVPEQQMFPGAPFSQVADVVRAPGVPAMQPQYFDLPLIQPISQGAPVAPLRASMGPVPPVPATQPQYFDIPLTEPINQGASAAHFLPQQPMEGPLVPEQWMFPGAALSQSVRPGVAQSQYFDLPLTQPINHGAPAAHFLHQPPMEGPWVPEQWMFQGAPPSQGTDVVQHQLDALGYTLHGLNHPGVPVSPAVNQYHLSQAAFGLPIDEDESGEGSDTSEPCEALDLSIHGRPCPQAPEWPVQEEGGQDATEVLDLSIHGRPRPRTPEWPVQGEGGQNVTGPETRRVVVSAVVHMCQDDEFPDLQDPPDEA

Results are given in words; binding and its absence hold for the method and conditions named. In cells and extracts the contact can be indirect. Some binding calls cover weakened binding; strength is not graded here.

For “Arrestin, beta 2, full-length, expressed in HEK293T cells (from UniProt P32121 1-409)”, the binding entry in test [1], in test [2] and in test [3] was “binds” each time.

With “C-terminal binding protein 2, full-length, expressed in HEK293T cells (from UniProt P56545 1-445)”, the binding entry in test [1], in test [2] and in test [3] was “binds” in each case.

For the molecule “COP9 constitutive photomorphogenic homolog, subunit 5, full-length, expressed in HEK293T cells (from UniProt Q92905 1-334)”, the binding entry in test [1], in test [2] and in test [3] was “binds” throughout.

For “DnaJ (Hsp40) homolog, subfamily B, member 1, full-length, expressed in HEK293T cells (from UniProt P25685 1-340)”, the binding result in test [1], in test [2] and in test [3] was “binds” in each case.

For “Eukaryotic translation initiation factor 3 subunit F, full-length, expressed in HEK293T cells (from UniProt O00303 1-357)”, the binding result in test [1], in test [2] and in test [3] was “binds” in each case.

On to “F-box protein, helicase, 18, full-length, expressed in HEK293T cells (from UniProt Q8NFZ0 1-1043)”, for which the binding result in test [1] and in test [3] was “binds” throughout.

For the molecule “Heterogeneous nuclear ribonucleoprotein K, full-length, expressed in HEK293T cells (from UniProt P61978 1-463)”, the binding entry in test [1] is listed as “binds”.

Consider “Mesenchyme homeobox 1, full-length, expressed in HEK293T cells (from UniProt P50221 1-254)”, for which the binding entry in test [1], in test [2] and in test [3] was “binds” in each case.

As to “Microspherule protein 1, full-length, expressed in HEK293T cells (from UniProt Q96EZ8 1-462)”, the binding entry in test [1], in test [2] and in test [3] was “binds” each time.

Turning to “PDZ and LIM domain 7, full-length, expressed in HEK293T cells (from UniProt Q9NR12 1-457)”, the binding entry in test [1], in test [2] and in test [3] was “binds” in each case.

With “Proteasome subunit, alpha, type 7, full-length, expressed in HEK293T cells (from UniProt O14818 1-248)”, the binding entry in test [2] and in test [3] was “binds” each time.

“SMT3 suppressor of mif two 3 homolog 2, full-length, expressed in HEK293T cells (from UniProt P61956 1-95)”: the binding entry in test [1], in test [2] and in test [3] was “binds” in each case.

For the molecule “Stress induced phosphoprotein 1, full-length, expressed in HEK293T cells (from UniProt P31948 1-543)”, the binding entry in test [1], in test [2] and in test [3] was “binds” in each case.

For the molecule “Trafficking protein particle complex 6A, full-length, expressed in HEK293T cells (from UniProt O75865 1-159)”, the binding result in test [1], in test [2] and in test [3] was “binds” throughout.

B1: Zyxin, full-length, expressed in HEK293T cells (protein, UniProt Q15942 1-572)
chain: MAAPRPSPAISVSVSAPAFYAPQKKFGPVVAPKPKVNPFRPGDSEPPPAPGAQRAQMGRVGEIPPPPPEDFPLPPPPLAGDGDDAEGALGGAFPPPPPPIEESFPPAPLEEEIFPSPPPPPEEEGGPEAPIPPPPQPREKVSSIDLEIDSLSSLLDDMTKNDPFKARVSSGYVPPPVATPFSSKSSTKPAAGGTAPLPPWKSPSSSQPLPQVPAPAQSQTQFHVQPQPQPKPQVQLHVQSQTQPVSLANTQPRGPPASSPAPAPKFSPVTPKFTPVASKFSPGAPGGSGSQPNQKLGHPEALSAGTGSPQPPSFTYAQQREKPRVQEKQHPVPPPAQNQNQVRSPGAPGPLTLKEVEELEQLTQQLMQDMEHPQRQNVAVNELCGRCHQPLARAQPAVRALGQLFHIACFTCHQCAQQLQGQQFYSLEGAPYCEGCYTDTLEKCNTCGEPITDRMLRATGKAYHPHCFTCVVCARPLEGTSFIVDQANRPHCVPDYHKQYAPRCSVCSEPIMPEPGRDETVRVVALDKNFHMKCYKCEDCGKPLSIEADDNGCFPLDGHVLCRKCHTARAQT
B1: the binding entry in test [2] and in test [3] was “binds” in each case.

B2: Nuclear transcription factor Y, gamma, full-length, expressed in HEK293T cells (protein, UniProt Q13952 1-458)
chain: MSTEGGFGGTSSSDAQQSLQSFWPRVMEEIRNLTVKDFRVQELPLARIKKIMKLDEDVKMISAEAPVLFAKAAQIFITELTLRAWIHTEDNKRRTLQRNDIAMAITKFDQFDFLIDIVPRDELKPPKRQEEVRQSVTPAEPVQYYFTLAQQPTAVQVQGQQQGQQTTSSTTTIQPGQIIIAQPQQGQTTPVTMQVGEGQQVQIVQAQPQGQAQQAQSGTGQTMQVMQQIITNTGEIQQIPVQLNAGQLQYIRLAQPVSGTQVVQGQIQTLATNAQQGQRNASQGKPRRCLKETLQITQTEVQQGQQQFSQFTDGQRNSVQQARVSELTGEAEPREVKATGNSTPCTSSLPTTHPPSHRAGASCVCCSQPQQSSTSPPPSDALQWVVVEVSGTPNQLETHRELHAPLPGMTSLSPLHPSQQLYQIQQVTMPAGQDLAQPMFIQSANQPSDGQAPQVTGD
As for B2, the binding result in test [2] and in test [3] was “binds” each time.

B3: Zinc finger and BTB domain containing 17 (MIZ-1), full-length, expressed in HEK293T cells (protein, UniProt Q13105 1-803)
chain: MDFPQHSQHVLEQLNQQRQLGLLCDCTFVVDGVHFKAHKAVLAACSEYFKMLFVDQKDVVHLDISNAAGLGQVLEFMYTAKLSLSPENVDDVLAVATFLQMQDIITACHALKSLAEPATSPGGNAEALATEGGDKRAKEEKVATSTLSRLEQAGRSTPIGPSRDLKEERGGQAQSAASGAEQTEKADAPREPPPVELKPDPTSGMAAAEAEAALSESSEQEMEVEPARKGEEEQKEQEEQEEEGAGPAEVKEEGSQLENGEAPEENENEESAGTDSGQELGSEARGLRSGTYGDRTESKAYGSVIHKCEDCGKEFTHTGNFKRHIRIHTGEKPFSCRECSKAFSDPAACKAHEKTHSPLKPYGCEECGKSYRLISLLNLHKKRHSGEARYRCEDCGKLFTTSGNLKRHQLVHSGEKPYQCDYCGRSFSDPTSKMRHLETHDTDKEHKCPHCDKKFNQVGNLKAHLKIHIADGPLKCRECGKQFTTSGNLKRHLRIHSGEKPYVCIHCQRQFADPGALQRHVRIHTGEKPCQCVMCGKAFTQASSLIAHVRQHTGEKPYVCERCGKRFVQSSQLANHIRHHDNIRPHKCSVCSKAFVNVGDLSKHIIIHTGEKPYLCDKCGRGFNRVDNLRSHVKTVHQGKAGIKILEPEEGSEVSVVTVDDMVTLATEALAATAVTQLTVVPVGAAVTADETEVLKAEISKAVKQVQEEDPNTHILYACDSCGDKFLDANSLAQHVRIHTAQALVMFQTDADFYQQYGPGGTWPAGQVLQAGELVFRPRDGAEGQPALAETSPTAPECPPPAE
Take B3: the binding entry in test [1], in test [2] and in test [3] was “binds” throughout.

These data come from publication PMC4150796.
